In publication PMC4336329 (PLoS ONE, 2015):
Among all 310,000 compounds or so, about 2,200 (0.71%) showed an effect of 50% or more. Effects have a minus sign here. The list shows a part of the results.

target: human ether-à-go-go-related gene (hERG) potassium channel (human, UniProt Q12809); experiment: primary screen, population patch clamp on CHO cells stably expressing hERG
Sequence (Q12809 whole entry, looked up): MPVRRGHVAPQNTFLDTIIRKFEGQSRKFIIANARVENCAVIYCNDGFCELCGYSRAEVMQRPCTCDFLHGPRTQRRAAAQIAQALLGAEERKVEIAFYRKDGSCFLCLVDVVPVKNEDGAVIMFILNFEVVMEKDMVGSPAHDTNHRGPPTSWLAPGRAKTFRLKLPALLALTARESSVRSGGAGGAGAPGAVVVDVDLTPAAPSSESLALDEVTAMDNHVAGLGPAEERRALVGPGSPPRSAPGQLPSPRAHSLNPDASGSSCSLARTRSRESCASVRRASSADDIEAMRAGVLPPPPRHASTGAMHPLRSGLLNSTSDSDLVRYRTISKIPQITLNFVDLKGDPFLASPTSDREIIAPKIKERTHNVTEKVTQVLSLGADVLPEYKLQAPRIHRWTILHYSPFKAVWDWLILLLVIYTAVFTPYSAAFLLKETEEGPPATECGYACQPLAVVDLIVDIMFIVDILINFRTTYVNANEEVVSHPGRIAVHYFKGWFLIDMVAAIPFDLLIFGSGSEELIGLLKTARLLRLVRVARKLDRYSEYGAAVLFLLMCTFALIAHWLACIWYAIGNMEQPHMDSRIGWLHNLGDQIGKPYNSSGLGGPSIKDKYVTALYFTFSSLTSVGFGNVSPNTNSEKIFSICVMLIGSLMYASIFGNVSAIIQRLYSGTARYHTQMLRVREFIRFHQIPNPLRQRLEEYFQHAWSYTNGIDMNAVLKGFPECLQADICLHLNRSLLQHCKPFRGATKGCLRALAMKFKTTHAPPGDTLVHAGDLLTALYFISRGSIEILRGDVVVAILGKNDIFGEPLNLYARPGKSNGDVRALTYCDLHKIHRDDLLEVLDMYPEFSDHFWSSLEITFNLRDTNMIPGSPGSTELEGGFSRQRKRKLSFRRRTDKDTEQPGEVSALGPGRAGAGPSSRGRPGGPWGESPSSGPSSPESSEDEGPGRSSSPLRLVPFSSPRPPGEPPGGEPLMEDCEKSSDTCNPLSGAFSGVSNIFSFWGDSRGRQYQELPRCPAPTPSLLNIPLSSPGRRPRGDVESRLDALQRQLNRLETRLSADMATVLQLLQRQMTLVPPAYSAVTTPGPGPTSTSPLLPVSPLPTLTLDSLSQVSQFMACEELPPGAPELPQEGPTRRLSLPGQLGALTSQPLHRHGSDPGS

Row | SMILES | hERG current change (%, negative = inhibition) at 1uM
1 | COc1ccc(N/N=C(/C#N)S(=O)(=O)C(C)(C)C)cc1 | 12.8%
2 | Cc1cccc(OCc2nc(-c3cccnc3)no2)c1 | 16.1%
3 | Cc1c(C)c2c(OCC(=O)N[C@@H](CC(C)C)C(=O)O)cc3c(c2oc1=O)CCC(C)(C)O3 | 10.1%
4 | CC(C)CCN(C(=O)Nc1ccccc1)C(C)c1cccs1 (stereo not shown) | 7.97%
5 | CCOC(=O)c1ccc(NC(=S)Nc2ccc(Br)cc2N)cc1 | 18.6%
6 | C=CCN1C2CCCC1CC(NC(=S)Nc1ccc(Cl)cc1)C2 (stereo not shown) | -6.84%
7 | COc1ccc(-n2c(SCC(=O)NCC3CCCO3)nc3c([nH]c4ccccc43)c2=O)cc1 (stereo not shown) | 17.3%
8 | CCOc1ccc(Br)cc1C(=O)Nc1ccc(C(=O)NCC(C)C)cc1 | -1.92%
9 | COC(=O)C1=CO[C@@H](C)[C@@H]2CN3CC[C@@]4(C(=O)Nc5ccccc54)[C@@H]3C[C@H]12 | 13.6%
10 | COc1ccc(Cl)cc1N1C(=O)CC(N2CCc3ccccc32)C1=O (stereo not shown) | 9.34%
11 | Cc1ccc(Oc2nc3ccccn3c(=O)c2/C=C(\C#N)C(=O)Nc2c(C)n(C)n(-c3ccccc3)c2=O)c(C)c1 | 13.5%
12 | O=c1ccc2ccc(Oc3ccc([N+](=O)[O-])cc3Cl)cc2o1 | 12.3%
13 | COc1ccc(S(=O)(=O)NC(C)C(=O)NCc2ccccn2)cc1Cl (stereo not shown) | 13.8%
14 | O=C(COc1ccc2ccc(=O)oc2c1)N1CCC(C(=O)O)(c2ccccc2)CC1 | 13.6%
15 | Cc1ccc(OCC(=O)Nc2ccccc2C(=O)NC2CC2)cc1 | 15.6%
16 | O=C(O)c1ccc(Cl)c(S(=O)(=O)Nc2cccc(C(=O)Nc3cccc(C(F)(F)F)c3)c2)c1 | 10.7%
17 | CCOc1ccc(CCNC(=O)C2CCCN(S(=O)(=O)c3c(C)n[nH]c3C)C2)cc1OCC (stereo not shown) | 7.56%
18 | O=C(CCCN1C(=O)C2C3C=CC(C3)C2C1=O)N1CCN(c2ccccc2)CC1 (stereo not shown) | 3.01%
19 | O=C(O)c1cc(OCc2ccccc2)cc(OCc2ccccc2)c1 | 11.1%
20 | CCn1c2ccccc2c2cc(NC(=O)CSc3nnc(-c4ccccc4)o3)ccc21 | 6.09%
21 | COc1ccc(CN(C)CCc2ccccn2)cc1OC.O=C(O)C(=O)O | 5.36%
22 | Cc1ccc(S(=O)(=O)Nc2cccc(C(=O)NCC3CCCO3)c2)cc1F (stereo not shown) | 15.3%
23 | CCOC(=O)C1=C(O)/C(=C/c2ccccn2)SC1=Nc1ccc(Cl)cc1 | 11.8%
24 | Cn1c(C2CCCCC2)nc2cc(N)ccc21 | 12.3%
25 | O=C(CCNC(=O)N1CC(=O)Nc2ccccc21)Nc1ccc(Br)cc1F | 15.9%
26 | COc1ccccc1OCCNc1nc2c(c(=O)n(C)c(=O)n2C)n1C | 5.8%
27 | O=C(CCc1c[nH]c2ccccc12)NCC1COc2ccccc2O1 (stereo not shown) | 12.7%
28 | COCCNC(=O)CC(NS(=O)(=O)c1ccc(NC(C)=O)cc1)C(C)C (stereo not shown) | 1.01%

Row | SMILES | hERG current change (%, negative = inhibition) at 1uM
29 | CCc1ccc2oc(-c3cc(N)ccc3Cl)nc2c1 | 12%
30 | C#CCN(C(=O)c1cc(COc2cccc(C(F)(F)F)c2)on1)C1CCCCC1 | 9.83%
31 | CCN(CC)CCCN1C=C2C(=O)C(C)(OC(=O)CCc3ccccc3)C(=O)C=C2C=C1c1ccc(C#N)cc1 (stereo not shown) | 8.18%
32 | CCc1ccccc1NC(=O)C1CCCN(S(=O)(=O)c2c(C)noc2C)C1 (stereo not shown) | 15.8%
33 | Cc1cc(Oc2ccccc2)nc(SCC(=O)Nc2ccc(Cl)cc2Cl)n1 | 5.61%
34 | CCOc1ccc(N2CC(C(=O)Nc3nnc(Cc4ccccc4)s3)CC2=O)cc1 (stereo not shown) | 11.8%
35 | Cc1cc(Nc2ccc(Br)cc2F)n2nc(C)nc2n1 | -5.23%
36 | Cc1cnc(NC(=O)CN2C(=O)C3CC=CCC3C2=O)s1 (stereo not shown) | 32.5%
37 | CCCc1cc(C(=O)N/N=C/c2cccn2C)cs1 | 0.4%
38 | CCN(CC)CCC(=O)NC(C)(C)Cc1ccc(O)cc1 | 9.74%
39 | Cc1cc(C)nc(SCC(=O)N/N=C/c2ccc3c(c2)OCO3)n1 | 7.8%
40 | CCc1ccc2[nH]c3nc(C)cc(C)c3c(=O)c2c1 | 1.99%
41 | CC(C)=C1SC(N2CCN(c3ccc(C)cc3)CC2)=NC1=O | -9.9%
42 | O=C(NCCN1CCOCC1)c1ccc2c(c1)N(Cc1ccc(F)cc1)C(=O)CS2 | 12.8%
43 | COCCNC(=S)N/N=C(\C)c1cccc(C(F)(F)F)c1 | 14.4%
44 | Cc1ccc(NC(=O)C(c2ccccc2)N2CCN(CC(=O)NC3CC3)CC2)cc1Cl (stereo not shown) | -2.31%
45 | NC(=O)c1ccccc1NC(=O)COc1ccc2c(c1)OCO2 | 12.2%
46 | CCn1c(=O)c(C(=O)CN2CCN(S(=O)(=O)c3cc(C)ccc3C)CC2)c(N)n(Cc2ccccc2)c1=O | 12.1%
47 | O=C(NCc1cccnc1)C(=O)Nc1nc(C23CC4CC(CC(C4)C2)C3)cs1 | 14%
48 | NC(=O)c1cc(-c2cccnc2)nc2ccc(Br)cc12 | 7.78%
49 | C=CCOC(=O)/C(=C\c1ccc(OC)cc1)NC(=O)c1ccco1 | 10.2%
50 | COCCn1c(SCc2ccc(OC)c(F)c2)nc2ccccc2c1=O | 13.6%
51 | COc1ccc(NC(=O)CNS(=O)(=O)c2ccc(Cl)cc2)cc1OC | 2.3%
52 | C=CCc1cccc(CNc2cnc3ccccc3c2)c1O | 5.06%
53 | CCCOc1cccc(C(=O)NCCCNC(=O)c2cccnc2)c1 | -8.74%
54 | CC(=O)NCc1nc2ccccc2n1Cc1ccccc1C | 10.3%
55 | CCc1noc(C)c1C(=O)Nc1nc2ccc(F)cc2s1 | 9.21%
